Laboratory results as given in PubChem BioAssay (Tox21).
The shares of active, inactive and inconclusive entries below differ from those in the screen. A potency beside an inconclusive call is a rough fit, not a confirmed value. The source made the active and inactive calls.

Target: Androgen receptor (Homo sapiens) (UniProt P10275)
Assay: qHTS assay to identify small molecule antagonists of the androgen receptor (AR) signaling pathway (AID 743035; active means well fitted inhibition curve with a large enough effect in the signal ratio in the repeat runs, not every such curve was filed as active; inconclusive means weak or mixed curves, or effect the other way; inactive means no such curve, though single readings can be large or run the other way; the % refers to the signal ratio)
Details: HEK293 AR-UAS-bla, R1881-stimulated, beta-lactamase FRET, 16 h; activity change, negative = inhibition: at 58.5 µM (top of the series; the call rests on the fitted dose curve and not on this point) unless noted
In short: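 HEK293 cells stably carrying UAS-beta-lactamase reporter, 2,000/well, given compounds plus R1881 agonist and incubated 16 h at 37C. LiveBLAzer B/G FRET substrate then added for 2 h at room temperature before fluorescence reading.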
On the % scale 0 is the no-effect control and ±100 the full control effect; potency means the concentration at half of the fitted maximal effect; tags describe the fitted curve by direction and shape or compound fluorescence and quenching.

UniProt P10275, sequence (P10275 whole entry, looked up): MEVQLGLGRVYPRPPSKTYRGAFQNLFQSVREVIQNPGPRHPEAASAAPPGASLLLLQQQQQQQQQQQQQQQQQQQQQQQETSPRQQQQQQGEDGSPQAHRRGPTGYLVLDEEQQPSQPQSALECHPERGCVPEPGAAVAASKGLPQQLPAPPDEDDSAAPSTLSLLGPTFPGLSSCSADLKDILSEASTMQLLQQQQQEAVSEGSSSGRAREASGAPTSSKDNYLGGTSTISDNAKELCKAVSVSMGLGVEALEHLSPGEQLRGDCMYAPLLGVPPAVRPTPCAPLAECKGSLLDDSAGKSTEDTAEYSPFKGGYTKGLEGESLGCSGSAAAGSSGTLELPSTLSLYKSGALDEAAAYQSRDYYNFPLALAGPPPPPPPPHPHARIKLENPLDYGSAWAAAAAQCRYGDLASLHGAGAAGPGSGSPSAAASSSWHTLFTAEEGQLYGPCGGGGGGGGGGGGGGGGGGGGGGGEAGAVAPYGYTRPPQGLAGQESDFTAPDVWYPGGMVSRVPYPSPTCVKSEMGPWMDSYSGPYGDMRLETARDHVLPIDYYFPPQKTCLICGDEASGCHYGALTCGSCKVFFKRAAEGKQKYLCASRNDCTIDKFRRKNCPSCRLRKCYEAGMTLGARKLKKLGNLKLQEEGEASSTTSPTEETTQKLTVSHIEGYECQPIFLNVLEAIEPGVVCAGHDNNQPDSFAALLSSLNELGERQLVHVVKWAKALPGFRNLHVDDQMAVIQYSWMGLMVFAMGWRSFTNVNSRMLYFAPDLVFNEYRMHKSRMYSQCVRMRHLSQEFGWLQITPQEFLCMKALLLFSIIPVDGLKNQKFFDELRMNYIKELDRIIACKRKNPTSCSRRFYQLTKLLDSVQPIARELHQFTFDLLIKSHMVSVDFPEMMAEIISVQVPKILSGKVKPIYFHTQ

SMILES	Potency
Nc1nc2ccc([N+](=O)[O-])cc2s1	inconclusive: 34.7 µM [partial curve, poor fit]
CC(CC=O)CCCC(C)(C)O (stereo not drawn)	inactive
CCCCC(CC)C(=O)OCCOCCOCCOC(=O)C(CC)CCCC (stereo not drawn)	inconclusive: 2.21 µM [falling, partial curve, poor fit]
CCCCN(CCCC)c1ccc(C(=O)c2ccccc2C(=O)O)c(O)c1	active: 39.3 µM

Target: Androgen receptor (Homo sapiens) (UniProt P10275)
Assay: qHTS assay to identify small molecule agonists of the androgen receptor (AR) signaling pathway (AID 743036; active means well fitted activation curve with a large enough effect in the signal ratio in the repeat runs, with a control signal flat, not every such curve was filed as active; inconclusive means weak or mixed curves, or effect the other way; inactive means no such curve, though single readings can be large or run the other way; the % refers to the signal ratio)
Details: HEK293 AR-UAS-bla GripTite, beta-lactamase FRET ratio, 16 h; activation: at 62.4 µM (top of the series) unless noted
In short: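 Activation was read as beta-lactamase FRET signal from LiveBLAzer B/G substrate, added for 2 h at room temperature. Before that, GeneBLAzer AR-UAS-bla GripTite (HEK293) cells had 16 h compound exposure at 37C.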

SMILES	Potency	activation
Nc1nc2ccc([N+](=O)[O-])cc2s1	inconclusive: 54.9 µM [rising, partial curve, poor fit]	–
O=Cc1ccc(F)cc1	inconclusive: 54.9 µM [rising, single point]	–
CCCCN(CCCC)c1ccc(C(=O)c2ccccc2C(=O)O)c(O)c1	–	inconclusive: 9.43% [at 79.1 µM]
CCCCCCOC(=O)c1ccccc1O	inconclusive: 61.6 µM [activator, partial curve, poor fit]	–
